The record followed here is PubChem BioAssay AID488969 (Vanderbilt High Throughput Screening Facility, 2010).

Whole data set: some 110,000 compounds, median “z-score” near -0.1, cut for the highest 2% near 2. This is one part of the list.

The assay deals with Metabotropic glutamate receptor 8 (Rattus norvegicus) (UniProt P70579). In words: rat mGluR8 modulators via GIRK flux, primary screen, cell-based, thallium flux, HTS (AID 488969). The settings on record: HEK293 rat mGluR8, GIRK (G protein-gated inwardly rectifying potassium channel) thallium flux, FluoZin2; at 10 µM; stronger effect = higher value; submaximal glutamate (EC20) added with thallium.
Chain of UniProt P70579 (P70579 whole entry, looked up): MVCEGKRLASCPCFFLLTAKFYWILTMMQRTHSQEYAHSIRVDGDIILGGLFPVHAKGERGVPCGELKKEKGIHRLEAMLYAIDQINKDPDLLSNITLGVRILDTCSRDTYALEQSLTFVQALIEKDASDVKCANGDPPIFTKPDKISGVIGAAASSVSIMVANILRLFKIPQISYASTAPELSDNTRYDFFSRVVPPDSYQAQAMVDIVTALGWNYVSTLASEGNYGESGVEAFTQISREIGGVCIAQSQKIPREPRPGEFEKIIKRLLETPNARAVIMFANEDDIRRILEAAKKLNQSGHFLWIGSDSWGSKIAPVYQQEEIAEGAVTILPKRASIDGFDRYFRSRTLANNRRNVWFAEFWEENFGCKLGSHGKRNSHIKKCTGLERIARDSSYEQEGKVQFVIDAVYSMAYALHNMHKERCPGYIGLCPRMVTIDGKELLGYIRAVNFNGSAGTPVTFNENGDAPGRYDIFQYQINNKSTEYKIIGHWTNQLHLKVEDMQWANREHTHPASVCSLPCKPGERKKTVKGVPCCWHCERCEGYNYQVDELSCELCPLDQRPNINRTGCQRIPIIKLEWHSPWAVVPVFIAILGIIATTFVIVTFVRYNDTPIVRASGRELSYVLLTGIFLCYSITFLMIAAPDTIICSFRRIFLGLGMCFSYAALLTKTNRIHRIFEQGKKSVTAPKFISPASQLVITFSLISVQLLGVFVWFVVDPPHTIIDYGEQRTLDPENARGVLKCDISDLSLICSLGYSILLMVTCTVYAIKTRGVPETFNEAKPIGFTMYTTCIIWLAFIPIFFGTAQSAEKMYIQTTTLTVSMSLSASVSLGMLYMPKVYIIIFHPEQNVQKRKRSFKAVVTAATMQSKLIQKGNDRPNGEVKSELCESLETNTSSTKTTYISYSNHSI
With `Cc1ccc(C=C2C(=O)c3ccccc3C2=O)o1`, the z-score is -0.113.

With `O=S(=O)(c1ccc(F)cc1)c1nc(-c2ccco2)oc1Nc1ccc(F)cc1`, the z-score was found to be 0.152.

The compound `CC(=O)c1cn(CCCCCCCCCCn2cc(C(C)=O)c(=O)[nH]c2=O)c(=O)[nH]c1=O` came in with a z-score of -0.0303.

Consider `O=C(/C=C/c1cccc([N+](=O)[O-])c1)NCc1cccnc1`, for which the z-score was -0.187.

For the compound `[O-]C1=N/[N+](=C/c2ccccc2Cl)CC1`, the z-score amounted to 0.626.

Take `O=c1[nH]c(-c2cccnc2)nc2ccccc12`: the z-score is -0.073.

With `COc1cccc(N2CCN(C(=O)NC3CCCCC3)CC2)c1`, the z-score is -0.123.

As for `O=C(CN1CCc2ccccc2C1)c1cccs1`, the z-score worked out at 0.0745.

Compound `Cc1ccc(-n2c(=O)c3c(n4cnnc24)-c2ccccc2CC32CCCCC2)cc1` gave a z-score of -0.463.

With `CN1CCN(S(=O)(=O)c2ccc(N)cc2)CC1`, the z-score came to 0.149.

Consider `CC(C)(C)NC(=O)COC(=O)/C=C/c1ccc(F)cc1`, for which the z-score is -0.0768.

For `O=C(Nc1ccn(Cc2c(F)c(F)cc(F)c2F)n1)c1ccc(COc2cc(Cl)ccc2Cl)o1`, the z-score is -0.0665.

`COc1ccccc1NC(=S)Nc1ccccc1F` came in with a z-score of -0.185.

With `Cc1ccc(C(=O)Nc2ccc3c(c2)nc2n3CCSC2)cc1`, the z-score came out at 0.623.

Compound `CCCS(=O)(=O)N1CCCC(C(=O)NCCCN2CCN(c3ccc(F)cc3)CC2)C1` (stereo not drawn) showed a z-score of 0.281.

The compound `COc1ccc(C2=NN(C(=O)CSc3nc4ccccc4s3)C(c3ccc(F)cc3)C2)cc1` (stereo not drawn) showed a z-score of 0.00961.

`CN(C)NC1CCS(=O)(=O)C1` (stereo not drawn) had a z-score of -0.105.

`N#CCCNCC1(c2ccccc2)CCCC1` returned a z-score of -0.298.

Compound `Cc1ccc(-c2nnc(N3CCN(C(=O)CN4CCOCC4)CC3)c3ccccc23)cc1` yielded a z-score of -0.0936.

Compound `COc1ccc(N2CCN(C(=O)C3CCN(S(=O)(=O)N4CCOCC4)CC3)CC2)cc1` came in with a z-score of -0.182.

`CO/N=C/c1ccc(N2CCN(C(=O)c3ccc(C)cc3)CC2)c([N+](=O)[O-])c1`: the z-score was -0.316.

As to `CCOc1ccc(OCC)c(-c2c(=O)n(OCc3ccccc3Br)c3ccccc3[n+]2[O-])c1`, the z-score turned out to be 1.8.

Take `CN1CCN(CC(=O)N/N=C\c2c[nH]c3ccccc23)CC1`: the z-score is 0.264.

`Cc1nc(NC(=O)c2ccc(F)cc2)sc1C(=O)Nc1ccc2c(c1)CCC2` came in with a z-score of -0.189.

Take `CCn1nc(NS(=O)(=O)c2ccccc2)c2cc3cccc(C)c3nc21`: the z-score was -0.264.

For `CC12CCC(C/C1=N\OC(=O)c1ccc(F)cc1)C2(C)C` (stereo not drawn), the z-score was -0.0195.

Regarding `O=C(c1ccc(CS(=O)(=O)c2ccccc2)o1)N1CCN(c2ncccn2)CC1`, the z-score is -0.184.

The compound `Cc1ccc(-c2nc3ccccc3c(=O)n2Cc2ccccc2)cc1` showed a z-score of -1.92.

On to `COc1ccc(C(=O)N2CCN(c3nc4cc(C)ccc4cc3C#N)CC2)c(OC)c1`, for which the z-score is 0.165.

In turn, `CCOC(=O)c1[nH]c2cc(OC)c(OC)cc2c1NC(=O)C(C)N1CCN(Cc2ccccc2)CC1` (stereo not drawn) registered a z-score of 0.951.

`Cc1ccc(NC(=S)NNC(=O)c2ccccc2OC(F)F)cc1` had a z-score of 0.966.

The compound `CCOC(=O)c1[nH]c(C)c(C(=O)N2CCN(c3ccc(F)cc3)CC2)c1C` returned a z-score of 0.736.

Regarding `Cc1nc(C(F)(F)F)nc(Nc2ccc(N=Nc3ccccc3)cc2)c1C#N`, the z-score was -0.051.

With `COC(=O)c1ccc(Sc2ccccc2NS(=O)(=O)c2ccc(NC(C)=O)cc2)nc1`, the z-score was 0.14.

`CC(C)N1C(=O)c2ccc(C(=O)O)cc2C1=O` gave a z-score of 0.911.

Compound `COC(=O)Nc1sc2c(c1C(=O)NCc1ccco1)CCCC2` gave a z-score of -0.564.

In turn, `CC(C)C(=O)Nc1cccc(C(=O)Nc2nnc(C(C)(C)C)s2)c1` yielded a z-score of -0.135.

The compound `Cc1nn(C(C)c2n[nH]c(=S)n2-c2ccc(F)cc2)c(C)c1[N+](=O)[O-]` (stereo not drawn) returned a z-score of 0.274.

For `O=C(O)c1cccc(NC(=O)C2CCCO2)c1` (stereo not drawn), the z-score is -0.529.

Compound `c1coc(-c2nnc(-c3ccc4c(c3)OCO4)o2)c1` displayed a z-score of 0.449.

`CCn1c(SCC(=O)NCc2ccco2)nnc1-c1ccc(N)cc1`: the z-score turned out to be 1.58.

In the case of `O=C(Cc1ccccc1)NC(=S)Nc1ccc2oc(-c3ccccc3)nc2c1`, the z-score is -0.179.

For `Cc1[nH]nc(N2CCCCCC2)c1[N+](=O)[O-]`, the z-score was found to be 0.256.

As to `COc1cc(NS(=O)(=O)c2cccc3nsnc23)c(C(=O)O)cc1OC`, the z-score was -0.281.

`Cc1ccn2c(NC3CCCCC3)c(C)nc2c1`: the z-score is -0.312.

`CCOC(=O)N1CCN(Cc2nc(N)nc(Nc3ccc(OCC)cc3)n2)CC1` registered a z-score of -0.27.

The compound `CCOc1ccccc1C1NC(=O)NC(C)=C1C(=O)OC1CCCC1C` (stereo not drawn) registered a z-score of -0.134.

Compound `CCOC(=O)C1CCN(Cc2ccc(Cl)c(Cl)c2)CC1` came in with a z-score of 0.132.

Take `CCC(=O)N(CCCN(C)C)c1nc(-c2cc(OC)ccc2OC)cs1`: the z-score was found to be 1.6.

Consider `COc1ccc2[nH]c3c(NCCCN4CCCC4=O)ncnc3c2c1`, for which the z-score was -0.439.

In turn, `COC(=O)c1[nH]c2ccccc2c1NC(=O)C(C)N1CCN(C(=O)c2ccco2)CC1` (stereo not drawn) displayed a z-score of -0.0506.

As to `Cc1ccc(NC(=O)CC2S/C(=N/N=C/C=C/c3ccccc3)NC2=O)cc1Cl` (stereo not drawn), the z-score is -0.251.

Compound `CCNC(=S)NNC(=O)c1csc(C(C)C)c1` yielded a z-score of -0.354.

`CC(=O)N1N=C(c2ccncc2)OC12CCCCCC2` yielded a z-score of 0.0573.

For the compound `Cc1cc(C)n2c(SCC(=O)N3CCN(S(=O)(=O)c4ccc(Cl)cc4)CC3)nnc2n1`, the z-score is -0.165.

Compound `O=C(Nc1ccccc1Cl)ON=C1c2ccccc2-c2ccccc21` came in with a z-score of 0.0477.

In turn, `CC/C(C)=N/Nc1cccc([N+](=O)[O-])c1` gave a z-score of 0.117.

In the case of `O=C(CSc1nnc(-c2cccs2)n1Cc1ccco1)c1ccc2c(c1)OCO2`, the z-score is -0.813.

The compound `O=c1[nH]c(CN2CCN(Cc3ccccc3)CC2)nc2sc3c(c12)CCC3` displayed a z-score of -0.568.

`CC(=O)c1cccc(NC(=S)NCCCCc2ccccc2)c1` returned a z-score of -0.454.

The compound `CCOC(=O)c1cc2sc(C)cc2n1C(C)C(=O)OCC` (stereo not drawn) returned a z-score of -1.32.

Compound `COC(=O)C1=C(C)N(c2ccccc2)/C(=C/c2cccs2)C1=O` showed a z-score of 1.34.

In turn, `Cc1noc(C)c1COc1cccc(C(=O)Oc2ccc3c(c2)OCO3)c1` had a z-score of -1.41.

`O=C(NCCc1ccccc1)c1ccc(OCCOc2ccccc2)cc1`: the z-score is 0.233.

Consider `COc1ccccc1S(=O)(=O)Cc1ccc(C(=O)NC2CCCCC2)o1`, for which the z-score is -0.107.

On to `CCOc1ccc(/C(O)=C2/C(=O)C(=O)N(CCN(C)C)C2c2ccccc2)cc1Cl` (stereo not drawn), for which the z-score is -0.211.

For `COCCNC(=O)C(OC(=O)c1ccco1)c1ccccc1OC` (stereo not drawn), the z-score was -0.951.

As for `c1coc(-c2nc(-c3ccco3)c(-c3ccco3)nc2-c2ccco2)c1`, the z-score is -0.254.

`O=S(=O)(c1ccc(C2=CSC3=NCCN23)cc1)N1CCOCC1` showed a z-score of 0.287.

In turn, `Fc1ccc(Cn2nnc(-c3ccc(CN4CCOCC4)cc3)n2)cc1` showed a z-score of -0.256.

`CS(=O)(=O)NCCCNc1c(Cl)cccc1[N+](=O)[O-]`: the z-score was -0.0993.

As for `CN(C)C(=O)c1cc(Br)ccc1Cl`, the z-score was -0.362.

`CN1CCN(c2nc(C#N)cc(-c3ccccc3)n2)CC1` returned a z-score of 0.245.

As for `O=C(Nc1nncs1)c1ccc(N2C(=O)C3C4C=CC(C4)C3C2=O)cc1` (stereo not drawn), the z-score was 0.679.

In turn, `O=C(Nc1nc2n(n1)C(c1ccccc1)C=C(c1ccccc1)N2)c1ccco1` (stereo not drawn) gave a z-score of -0.857.

The compound `O=c1[nH][nH]c(C(F)(F)F)c1C=Nc1ccc(Cl)cc1` yielded a z-score of 0.158.

On to `C=CCNC(=O)c1ccncc1`, for which the z-score is -0.272.

Turning to `Cc1cc(C)cc(NS(=O)(=O)c2ccc3[nH]c(=O)[nH]c3c2)c1`, the z-score turned out to be 0.711.

The compound `Nc1nnc(CC(=O)N2CCCCC2)s1` registered a z-score of 0.48.

The compound `N#Cc1c(NC(=O)c2cc(-n3cnnc3)ccc2Cl)sc2c1CCCC2` had a z-score of -0.401.

Turning to `COC(=O)C1NN=C(C(=O)c2ccccc2)C1c1ccccc1` (stereo not drawn), the z-score was -0.624.

`N#CCSc1nnc(-c2ccccc2)c(-c2ccccc2)n1` showed a z-score of -0.91.

`Cc1ccc(C)n1-n1cnc2sc3c(c2c1=O)CCCCC3`: the z-score is -0.178.

In turn, `Cc1ccc2cc(C)c3nnc(SCC(=O)c4cccs4)n3c2c1C` returned a z-score of -0.448.

Regarding `CCc1ccc(C2(O)CC(C(F)(F)F)=NN2C(=O)Cc2ccc([N+](=O)[O-])cc2)cc1` (stereo not drawn), the z-score was -0.289.

In turn, `Cc1ccccc1CSc1nnc(-c2cccs2)n1Cc1ccco1` registered a z-score of -1.02.

Compound `CCN(CC)c1ccc(C2C3CCCCC3(O)CCN2CC(=O)N2CCCCC2)cc1` (stereo not drawn) registered a z-score of -0.0629.

The compound `CC(=O)/C(=N\Nc1ccc(Cl)cc1Cl)Sc1nnc(-c2ccccc2)n1-c1ccccc1` came in with a z-score of -0.235.

For `Cc1onc(-c2ccccc2)c1C(=O)NCc1cccs1`, the z-score is 0.654.

`O=C1Nc2ccc([N+](=O)[O-])cc2C1(O)N1CCCCCC1` (stereo not drawn) displayed a z-score of 0.0674.

With `O=C(NN1C(=O)C2C3C=CC(C4CC34)C2C1=O)c1cccc(Cl)c1` (stereo not drawn), the z-score is -0.529.

Turning to `COC(=O)Cc1ccc(NC(=S)N2CCN(c3cccc(O)c3)CC2)cc1`, the z-score was -0.238.

For the compound `Cc1ccc(/C=N/NC(=O)Cn2nccc2C)o1`, the z-score is -0.0618.

Take `CNC(=O)C1=C(C)Nc2nc3ccccc3n2C1c1cccc(OC)c1` (stereo not drawn): the z-score is -0.775.

Turning to `Cc1ccc(OCc2nc(-c3ccc(Cl)cc3)n[nH]2)cc1`, the z-score stood at 0.00698.

In turn, `COc1ccccc1CNC(=O)c1cccs1` came in with a z-score of -0.436.

Regarding `O=C(CCN1C(=O)C2C3C=CC(C3)C2C1=O)Nc1ccc(F)cc1` (stereo not drawn), the z-score is -0.00554.

`O=C(O)/C=C\C(=O)Nc1ccccc1C#Cc1ccc(Br)cc1` had a z-score of -0.569.

As to `COc1ccc(OC)c(NC(=O)CS(=O)(=O)c2ccccc2)c1`, the z-score is 0.415.

Compound `NNc1nc2c(Cl)c(Cl)ccc2s1` returned a z-score of -0.414.

In the case of `O=C(CSc1nnc(-c2ccncc2)n1CCc1ccccc1)NCc1ccccc1`, the z-score is -0.255.

For the compound `COc1ccc(C(=O)/C=C2/c3ccccc3CC(C)(C)N2C)cc1OC`, the z-score was -0.481.

The compound `CCCc1cc(=O)oc2c(CN3CCCC3)c(O)c(Cl)cc12` registered a z-score of -0.219.

The compound `CN(C)/C=N/c1c(C#N)nnn1Cc1ccccc1` yielded a z-score of 1.84.

As to `Cc1ccc(Cn2cccc(NC(=O)NCc3ccccc3)c2=O)cc1`, the z-score was -0.0634.

With `Cc1cc(=O)[nH]c(SCC(=O)Nc2nnc(CC(C)C)s2)n1`, the z-score was -1.24.

Take `CC(CCO)Nc1nc2c(c(=O)n(C)c(=O)n2C)n1Cc1cccc(Br)c1` (stereo not drawn): the z-score was -0.171.

`Cc1ccc(S(=O)(=O)NCCC(=O)Nc2nnc(C)s2)cc1` came in with a z-score of -0.149.

In turn, `O=C(CCc1c[nH]c2ccccc12)NCc1ccc2c(c1)OCO2` showed a z-score of -0.143.

For the compound `COC(=O)c1cc(-c2ccccc2)on1`, the z-score is -1.87.

Regarding `Cc1cc(C)cc(C(=O)OCC(=O)Nc2cccc(S(=O)(=O)NC3=NCCCCC3)c2)c1`, the z-score was found to be 0.0544.

Regarding `CCCCOC(=O)CSc1nnc(-c2ccc(Cl)cc2Cl)o1`, the z-score is -2.67.

`CCCn1c(=O)[nH]c(=O)c2c1nc(-c1ccc3c(c1)OCCO3)n2CCN1CCOCC1` came in with a z-score of 1.07.
